Data: the supplement of paper PMC12217912
Some of the results follow. Sequences were assembled here from the parent chain. Inactive controls read about 0.05.

B1: TEV protease; numbered along this chain (parent)
chain: MGESLFKGPRDYNPISSSICHLTNESDGHTTSLYGIGFGPFIITNKHLFRRNNGTLVVQSLHGVFKVKDTTTLQQHLVDGRDMIIIRMPKDFPPFPQKLKFREPQREERICLVTTNFQTKSMSSMVSDTSCTFPSGDGIFWKHWIQTKDGQCGSPLVSTRDGFIVGIHSASNFTNTNNYFTSVPKNFMELLTNQEAQQWVSGWRLNADSVLWGGHKVFMVKPEEPFQPVKEATQL

Variants of: B1
Assay: raw area under fraction-flipped curve 0-4 h after induction (AUC4h, not background-subtracted), DNA-recorder readout of cleavage of the substrate (dimensionless); higher = more cleavage of the substrate by the protease variant
Conditions: temperature: 34 °C; time window: 0-4 h after rhamnose induction
Description: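 In vivo DNA recorder in E. coli TOP10(DE3) ΔrhaA at 34 °C. Each TEVp single-site mutant (parent TEVp 0) is paired with a single-site variant of the 7-mer TEVs (canonical ENLYFQ|S). The substrate sits between flexible linkers in a Bxb1-sfGFP-TEVs-SsrA fusion, so cleavage stabilises Bxb1 and speeds flipping of a recombination array, read by NGS. The value is the raw area under the fraction-flipped curve over 0-4 h after rhamnose induction (AUC4h), with ≥20 reads per time point. It is not background-subtracted; inactive controls average about 0.047.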
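Further: Bxb1 expression induced with 0.2% (w/v) L-rhamnose at OD600 near 0.5, cultures sampled hourly, flipped fraction per protease–substrate barcode pair counted by paired-end Illumina sequencing.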

Variant	area with substrate ENLAFQS	area with substrate ENLDFQS	area with substrate ENLFFQS	area with substrate ENLKFQS	area with substrate ENLNFQS	area with substrate ENLQFQS	area with substrate ENLSFQS	area with substrate ENLVFQS	area with substrate ENLCFQS	area with substrate ENLGFQS	area with substrate ENLHFQS	area with substrate ENLIFQS	area with substrate ENLMFQS	area with substrate ENLPFQS	area with substrate ENLRFQS	area with substrate ENLWFQS	area with substrate ENLEFQS	area with substrate ENLLFQS	area with substrate ENLTFQS
MGESLFKGPRDYNPISSSICHLTNESDGHTTSLYGIGFGPFIITNKHLFRRNNGTLVVQSLHGVFKVKDTTTLQQHLVDGRDMIIIRMPKDFPPFPQKLKFREPQREERICLVTTNFQTKSMSSMVSDTSCTFPSGDGIFWKHWIQTKDGQCGSPLVQTRDGFIVGIHSASNFTNTNNYFTSVPKNFMELLTNQEAQQWVSGWRLNADSVLWGGHKVFMVKPEEPFQPVKEATQL [S158Q]	0.0621	0.0599	0.0622	0.0575	0.0438	0.0491	0.0508	0.0557	–	–	–	–	–	–	–	–	–	–	–
MGESLFKGPRDYNPISSSICHLTNESDGHTTSLYGIGFGPFIITNKHLFRRNNGTLVVQSLHGVFKVKDTTTLQQHLVDGRDMIIIRMPKDFPPFPQKLKFREPQREERICLVTTNFQTKSMSSMVSDTSCTFPSGDGIFWKHWIQTKDGQCGSPLVSTRLGFIVGIHSASNFTNTNNYFTSVPKNFMELLTNQEAQQWVSGWRLNADSVLWGGHKVFMVKPEEPFQPVKEATQL [D161L]	0.043	0.048	0.0579	0.0508	0.0556	–	0.0424	0.0559	0.0505	0.0591	0.0559	0.0527	0.064	0.0672	0.0579	0.0431	–	–	–
MGESLFKGPRDYNPISSSICHLTNESDGHTTSLYGIGFGPFIITNKHLFRRNNGTLVVQSLHGVFKVKDTTTLQQHLVDGRDMIIIRMPKDFPPFPQKLKFREPQREERICLVTTNFQTKSMSSMVSDTSCTFPSGDGIFWKHWIQTKDGQCGSPLVSTRDQFIVGIHSASNFTNTNNYFTSVPKNFMELLTNQEAQQWVSGWRLNADSVLWGGHKVFMVKPEEPFQPVKEATQL [G162Q]	0.0602	0.0621	0.0775	0.0608	0.0616	–	0.0549	–	0.0701	–	0.0624	–	0.0654	–	–	–	0.0574	–	–
MGESLFKGPRDYNPISSSICHLTNESDGHTTSLYGIGFGPFIITNKHLFRRNNGTLVVQSLHGVFKVKDTTTLQQHLVDGRDMIIIRMPKDFPPFPQKLKFREPQREERICLVTTNFQTKSMSSMVSDTSCTFPSGDGIFWKHWIQTKDGQCGSPLVSTRDTFIVGIHSASNFTNTNNYFTSVPKNFMELLTNQEAQQWVSGWRLNADSVLWGGHKVFMVKPEEPFQPVKEATQL [G162T]	0.0551	0.0619	–	0.0731	0.0726	–	–	–	–	–	0.0576	0.08	–	0.081	0.0678	0.069	0.0432	0.0808	–
MGESLFKGPRDYNPISSSICHLTNESDGHTTSLYGIGFGPFIITNKHLFRRNNGTLVVQSLHGVFKVKDTTTLQQHLVDGRDMIIIRMPKDFPPFPQKLKFREPQREERICLVTTNFQTKSMSSMVSDTSCTFPSGDGIFWKHWIQTKDGQCGSPLVSTRDGCIVGIHSASNFTNTNNYFTSVPKNFMELLTNQEAQQWVSGWRLNADSVLWGGHKVFMVKPEEPFQPVKEATQL [F163C]	0.0568	0.0899	–	–	–	0.0536	0.0729	–	0.0727	–	0.0748	–	–	0.0614	0.0557	0.0543	0.083	–	0.0649
MGESLFKGPRDYNPISSSICHLTNESDGHTTSLYGIGFGPFIITNKHLFRRNNGTLVVQSLHGVFKVKDTTTLQQHLVDGRDMIIIRMPKDFPPFPQKLKFREPQREERICLVTTNFQTKSMSSMVSDTSCTFPSGDGIFWKHWIQTKDGQCGSPLVSTRDGFIHGIHSASNFTNTNNYFTSVPKNFMELLTNQEAQQWVSGWRLNADSVLWGGHKVFMVKPEEPFQPVKEATQL [V165H]	0.0586	–	0.0374	–	0.0476	–	0.0409	–	–	–	0.0458	0.0492	–	0.041	0.0264	–	–	0.04	–
MGESLFKGPRDYNPISSSICHLTNESDGHTTSLYGIGFGPFIITNKHLFRRNNGTLVVQSLHGVFKVKDTTTLQQHLVDGRDMIIIRMPKDFPPFPQKLKFREPQREERICLVTTNFQTKSMSSMVSDTSCTFPSGDGIFWKHWIQTKDGQCGSPLVSTRDGFIQGIHSASNFTNTNNYFTSVPKNFMELLTNQEAQQWVSGWRLNADSVLWGGHKVFMVKPEEPFQPVKEATQL [V165Q]	0.0548	0.0515	0.093	0.0621	0.0504	–	0.0443	0.0462	–	–	0.0663	–	–	0.0585	–	0.0562	0.0425	0.0578	–
MGESLFKGPRDYNPISSSICHLTNESDGHTTSLYGIGFGPFIITNKHLFRRNNGTLVVQSLHGVFKVKDTTTLQQHLVDGRDMIIIRMPKDFPPFPQKLKFREPQREERICLVTTNFQTKSMSSMVSDTSCTFPSGDGIFWKHWIQTKDGQCGSPLVSTRDGFIVHIHSASNFTNTNNYFTSVPKNFMELLTNQEAQQWVSGWRLNADSVLWGGHKVFMVKPEEPFQPVKEATQL [G166H]	0.053	0.0458	0.07	0.0493	0.0635	0.0389	–	0.0862	0.0543	0.0323	0.0413	0.0587	–	0.0468	0.0648	–	0.0531	0.0568	–
MGESLFKGPRDYNPISSSICHLTNESDGHTTSLYGIGFGPFIITNKHLFRRNNGTLVVQSLHGVFKVKDTTTLQQHLVDGRDMIIIRMPKDFPPFPQKLKFREPQREERICLVTTNFQTKSMSSMVSDTSCTFPSGDGIFWKHWIQTKDGQCGSPLVSTRDGFIVGMHSASNFTNTNNYFTSVPKNFMELLTNQEAQQWVSGWRLNADSVLWGGHKVFMVKPEEPFQPVKEATQL [I167M]	0.0491	–	0.0647	0.0723	0.0558	–	–	–	0.074	0.0687	0.0577	0.066	–	0.0637	–	0.0278	0.0766	0.0315	–
MGESLFKGPRDYNPISSSICHLTNESDGHTTSLYGIGFGPFIITNKHLFRRNNGTLVVQSLHGVFKVKDTTTLQQHLVDGRDMIIIRMPKDFPPFPQKLKFREPQREERICLVTTNFQTKSMSSMVSDTSCTFPSGDGIFWKHWIQTKDGQCGSPLVSTRDGFIVGPHSASNFTNTNNYFTSVPKNFMELLTNQEAQQWVSGWRLNADSVLWGGHKVFMVKPEEPFQPVKEATQL [I167P]	0.0576	0.057	0.0574	0.0515	0.0621	0.0522	0.0515	0.0551	–	0.0515	–	–	–	–	–	–	0.0617	0.0731	–
